Among all 420,000 compounds or so, about 64,000 (15%) were called active. The inconclusive results got no clear call from the source; some entries with a clear call stand among them for comparison. Calls follow the shape of the dose curve; as a rule, active = well fitted inhibition curve with a large enough effect; inconclusive = small, poorly fitted or top-dose-only effect; inactive = flat fitted curve, though single readings scatter. Potencies of inconclusive entries are left out as doubtful fits.
experiment: qHTS for Inhibitors of human tyrosyl-DNA phosphodiesterase 1 (TDP1): qHTS in cells in absence of CPT; conditions: DT40 Tdp1-/- hTDP1 cells, no CPT, ATP luminescence, 48 h; activity change, negative = growth inhibition: at 46.2 µM (top of the series); also: nearly all actives have a fitted effect of over 55% in size
Summary of the method: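 Luminescent ATP content (CellTiter-Glo) served as the growth readout. Knockout chicken DT40 cells expressing human TDP1 were exposed to compounds without camptothecin for a minimum 48 hr at 37 °C.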
% is scaled to controls: 0 for no effect and ±100 for the full control effect; potency is read from the fitted curve at half-maximal effect; tags tell the direction and shape of the fitted curve.

Row | SMILES | Potency | activity change, negative = growth inhibition
1 | Cc1nc(N)nc(N)c1CCCc1ccc(Cl)c(Cl)c1 | active: 2.59 µM | –
2 | CCCn1c(SCC(=O)Nc2nnc(-c3ccccc3)s2)nnc1-c1ccccn1 | – | inconclusive: -31% [inhibitor]
3 | CCCCn1c(=O)[nH]c(=O)c2c1nc(CN(C)Cc1cccc(OC)c1OC)n2CCC | inconclusive [inhibitor, single point] | –
4 | CCC(=O)Nc1nc2ccc(NC(=O)COc3ccccc3)cc2s1 | inactive | –
5 | CC1CCC2(CC1)NC(=O)N(CC(=O)Nc1sc3c(c1C(N)=O)CCC3)C2=O (stereo not drawn) | inactive | –
6 | COc1cc(-c2cc(C(=O)Nc3ccc(S(=O)(=O)Nc4ncccn4)cc3)c3ccccc3n2)cc(OC)c1OC | inconclusive [inhibitor, full curve, poor fit] | –
7 | CCCCSc1nc2ccccc2[nH]1 | inconclusive [inhibitor, single point] | –
8 | Cc1ccc(CSc2nnc(-c3ccc(NC(=O)CCc4ccccc4)cc3)n2C)cc1 | inconclusive [inhibitor, single point] | –
9 | COc1cc(C(=O)Nn2c(C)nc3ccccc3c2=O)cc(OC)c1OC | inactive | –
10 | CC(C)(C)c1ccc(OCC(=O)N2CCC(c3nc4ccccc4s3)CC2)cc1 | inconclusive [inhibitor, single point] | –
11 | O=C(NCCN1CCNC1=O)c1ccc2sc([C@H]3C[C@H](O)[C@@H](CO)O3)nc2c1 | inactive | –
12 | COc1ccc(C#Cc2c(-c3ccc(OC)cc3)oc3ccc(-c4ccc5c(c4)OCO5)cc23)cc1 | inactive | –
13 | N#Cc1ccc(N2CCN(C(=O)c3cccc(F)c3)CC2)c(F)c1 | inconclusive [inhibitor, single point] | –
14 | C/C(=N\NC(=O)CNc1ccc(F)cc1)c1cc2ccccc2o1 | inactive | –
15 | Cc1ccnc(NC(=O)c2cccc(NC(=O)c3ccccc3C)c2)c1 | inconclusive [inhibitor, single point] | –
16 | COc1cc(/C=C/C(=O)c2cccs2)cc(OC)c1OC | active: 1.5 µM | –
17 | COc1cc(OC)cc(C(=O)N2CCCC(c3nc(-c4ccc(C)o4)no3)C2)c1 (stereo not drawn) | inconclusive [inhibitor, single point] | –
18 | Cc1ccc(NS(=O)(=O)c2cc(C(=O)N3CCc4ccccc4C3)ccc2Cl)cc1 | inconclusive [inhibitor, single point] | –
19 | Cc1nc(C)c(-c2csc(Nc3ncccc3C)n2)s1 | inconclusive [inhibitor, partial curve] | –
20 | c1ccc(COc2ccc(OCCCN3CCCCC3)cc2)cc1 | inconclusive [inhibitor, single point] | –
21 | CN1C(C(=O)c2ccccc2)=C(OC(=O)c2ccc(Br)cc2)c2ccccc2S1(=O)=O | active: 20.6 µM | –
22 | CC1(NC(=O)CC(c2ccccc2)(c2ccccc2)c2ccccc2)CCN(Cc2ccc(-c3ccccc3)cc2)C1=O (stereo not drawn) | inconclusive [inhibitor, single point] | –
23 | O=C(Cn1cc(C(F)(F)F)cc(Cl)c1=O)Nc1ccc(N2CCOCC2)cc1 | inactive | –

Row | SMILES | Potency | activity change, negative = growth inhibition
24 | Cn1c(-c2ccccc2)cnc1NCc1ccc(F)cc1 | inconclusive [inhibitor, single point] | –
25 | Cc1oc2c(c(C)cc3oc(=O)c(CC(=O)NCCc4ccccc4)c(C)c32)c1C | inconclusive [inhibitor, single point] | –
26 | C[N+]1(C)CCc2cc3c(cc2[C@@H]1[C@@H]1C(=O)Oc2c1ccc1c2OCO1)OCO3 | inactive | –
27 | Cc1cc2ccccn2c1C(=O)c1cccc([N+](=O)[O-])c1 | inconclusive [inhibitor, single point] | –
28 | COc1ccc(C2NC(=S)NC3=C2N2CCC3CC2)cc1 (stereo not drawn) | inactive | –
29 | Cc1ccc(S(=O)(=O)N2CCOCC2)cc1NS(=O)(=O)c1ccc(F)c(F)c1 | inactive | –
30 | CCN1C(=O)/C(=C/c2ccc(OC)c(OC)c2)N=C1SCC(=O)NCc1ccco1 | inconclusive [inhibitor, single point] | –
31 | COc1ccc(Cc2c(-c3cccc(Br)c3)nc3cc(C)c(Br)c(C)n23)c(C)c1 | inactive | –
32 | Cc1ccc(CSCC(=O)N2CCN(c3ccccc3)CC2)cc1 | inconclusive [inhibitor, single point] | –
33 | OCC[C@@H]1C[C@H](O)[C@@H](O)[C@@]2(OCc3ccc4ccccc4c32)O1 | inactive | –
34 | CCOc1ncccc1C(=O)OCC(=O)N(CC(C)C)C1CCS(=O)(=O)C1 (stereo not drawn) | inactive | –
35 | C=CCn1c(N2CCN(c3ccc(OC)cc3)CC2)nc2c1c(=O)[nH]c(=O)n2C | inconclusive [inhibitor, single point] | –
36 | O=C(Nc1ccc(Cl)c(S(=O)(=O)N2CCCCC2)c1)c1ccco1 | inconclusive [inhibitor, single point] | –
37 | CCOC(=O)c1cccc(NC(=O)/C=C/c2cccc([N+](=O)[O-])c2)c1 | inconclusive [inhibitor, full curve] | –
38 | COc1ccc(Nc2ncnc3sc(-c4ccccc4)cc23)c(OC)c1 | inconclusive [inhibitor, single point] | –
39 | COc1ccccc1NC(=O)c1c(NCc2ccc(OC)c(OC)c2OC)sc2c1CCCC2 | inconclusive [inhibitor, single point] | –
40 | COc1ccc(CC(=O)Nc2ccc(C(=O)NC(C)(C)C)cc2)cc1OC | inactive | –
41 | COc1ccc(C(CNC(=O)c2ccc(S(=O)(=O)Nc3ccccc3OC)cc2)N2CCCC2)cc1 (stereo not drawn) | inconclusive [inhibitor, single point] | –
42 | O=S(=O)(c1ccc(F)cc1)N1CCN(C(=S)NCc2ccco2)CC1 | inactive | –
43 | CCN(CC)S(=O)(=O)c1ccc(N2CCN(S(=O)(=O)c3ccccc3)CC2)nc1 | inconclusive [inhibitor, partial curve, poor fit] | –
44 | COc1ccc(NC(=O)c2cc3c(=O)n(Cc4ccco4)ccc3nc2C)cc1 | inconclusive [inhibitor, single point] | –
45 | Cc1ccc(NC(=O)Nc2ccc3c(c2)N(C)C(=O)c2ccccc2S3)c(C)c1 | inconclusive [inhibitor, single point] | –
46 | COc1ccc(NC(=O)COC(=O)C2CCN(S(=O)(=O)c3cccs3)CC2)cc1OC | inactive | –

Row | SMILES | Potency | activity change, negative = growth inhibition
47 | CC(C)c1ccc(NC(=O)CN2C(=O)NC(C)(C3CC3)C2=O)cc1 (stereo not drawn) | inconclusive [inhibitor, single point] | –
48 | COc1cc(OC)c(OC)cc1/C=C1\CCC/C(=C\c2cc(OC)c(OC)cc2OC)C1=O | active: 23.1 µM | –
49 | O=C(NCc1cccc(Cl)c1)C1=CC=CN2CCS(=O)(=O)N=C12 | inactive | –
50 | CCc1nc2c(OCc3ccc(C(=O)N(C)C)cc3)cccn2c1N(C)C(=O)Nc1ccccc1OC | inconclusive [inhibitor, single point] | –
51 | COc1ccc(N2CCN(S(=O)(=O)CCNC(=O)C(c3ccccc3)c3ccccc3)CC2)cc1 | inconclusive [inhibitor, single point] | –
52 | CCOc1ccccc1NC(=O)c1ccc(Cl)c(NC(=O)CC(c2ccccc2)c2ccccc2)c1 | inconclusive [inhibitor, single point] | –
53 | COc1ccc(CC(=O)Nc2cccc(-c3cn4ccccc4n3)c2)cc1 | inconclusive [inhibitor, single point] | –
54 | CCN1CCN(CCCNC(=O)c2cnn(-c3ccccc3)c2C2CCN(C(=O)OC(C)(C)C)CC2)CC1 | inactive | –
55 | CC1CCN(C(=O)CSc2nc3c(c(=O)n2C)SC(C)C3)CC1 (stereo not drawn) | active: 20.6 µM | –
56 | C=C1CC2(CC(c3ccccc3)OC(c3ccccc3)C2)OC1=O (stereo not drawn) | active: 2.59 µM | –
57 | COc1cccc(C2C=C(c3ccc(C)c(C)c3)Nc3nnnn32)c1OC (stereo not drawn) | active: 3.66 µM | –
58 | O=C(NCCCn1ccnc1)C(=O)NCC(c1cccnc1)N1CCN(c2ccc(F)cc2)CC1 (stereo not drawn) | inconclusive [inhibitor, single point] | –
59 | COc1ccc(NC(=O)c2ccc3c(c2)OCO3)cc1 | inconclusive [inhibitor, single point] | –
60 | Cc1ccc(-c2c(CN3CCN(c4cccc(C(F)(F)F)c4)CC3)csc2C)cc1 | inconclusive [inhibitor, single point] | –
61 | Cc1cc(Cl)ccc1OCc1n[nH]c(=S)n1C1CCCCC1 | inconclusive [inhibitor, single point] | –
62 | CC(C)(C)C(=O)Oc1ccc2cc(-c3ccc4ccccc4n3)c(=O)oc2c1 | inconclusive [inhibitor, partial curve] | –
63 | O=C(NCCCc1ccccc1)c1c(O)nc2sccn2c1=O | inconclusive [inhibitor, single point] | –
64 | COc1ccc(NC(=O)CSc2nccn2Cc2ccc(F)cc2)c(OC)c1 | inactive | –
65 | Cc1ccc(-c2nn(-c3ccccc3)cc2C(=O)NCC2CCCO2)cc1 (stereo not drawn) | inconclusive [inhibitor, single point] | –
66 | COc1ccc(-n2c(=O)c(-c3ccc(F)cc3)nc3cnc(OC)nc32)cc1 | inconclusive [inhibitor, single point] | –
67 | CC(C)Sc1nc2c(c(=O)n1C)SC(C)C2 (stereo not drawn) | inconclusive [inhibitor, full curve, poor fit] | –
68 | O=C(c1cn(Cc2ccccc2)nc1-c1ccc(Cl)cc1)N1CCN(c2ccccn2)CC1 | inconclusive [inhibitor, single point] | –

Reference: PubChem BioAssay AID686978 (National Center for Advancing Translational Sciences (NCATS), 2013)
